Molecules are shown by their SMILES. The list shows a part of the results. The main result of the screen is listed elsewhere. These columns were measured beside it and carry no call. Compounds called inactive in the main read-out are mostly missing here.

This assay is described as follows: beta-lactam sensitization of Mtb H37Rv, H37Rv (AID 434955).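 Also: growth measured after seven days incubation then overnight dye step; 0% = bacteria only wells and 100% = bacteria with antibiotic.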 The following applies: M. tuberculosis H37Rv growth with meropenem, percent inhibition; measured here: primary screen without meropenem; at 25 µM.
Consider `CCN1CCN(CCCNC(=O)C2CCN(c3nnc(-n4c(C)ccc4C)s3)CC2)CC1`, for which the inhibition amounted to 1.1%.

On to `Cc1ccc(N(CCC#N)C(=O)COC(=O)c2ccccn2)cc1`, for which the inhibition was 2.91%. The figure for `O=C(CCS(=O)(=O)c1ccccc1)Nc1nc2cc3c(cc2s1)OCCO3` is 13%; for `CC1CCN(Cc2nnnn2CCCC(=O)NC(c2ccccn2)C(F)(F)F)CC1` (configuration not stated) it is 6.91%; for `CC1CCc2c(sc3nc(CN4CCOCC4)nc(Sc4ccccc4)c23)C1` (configuration not stated) it is 8.68%. The figure for `CC(NC(=O)c1ccccc1)C(=O)OCC(=O)N1c2ccccc2Sc2ccccc21` (configuration not stated) is -2.59%. Then `Cc1cc(N/C(=N\S(=O)(=O)c2ccc(Cl)cc2)c2ccc(F)cc2)no1`, with 10.9%; and `O=C(NC1CCCC1)c1ccccc1OCc1ccccc1`, with 15.4%; and `Cc1c(C(=O)NC(=S)Nc2ccccc2N2CCCC2)cccc1[N+](=O)[O-]`, with 31.9%. `CC1CCC(C(=O)NC(C(=O)N2CCc3ccccc3C2)C(C)C)CC1` (configuration not stated): the inhibition came to 5.45%. Then `NC(=O)C1CCN(C(=O)COCc2cc(-c3ccc4c(c3)OCO4)on2)CC1`, with 1.04%. Consider `O=C(Cc1ccccc1)Nc1ccnn1C1CCN(Cc2ccc(CO)o2)CC1`, for which the inhibition was -6.98%. The figure for `O=C(Cn1nc(-c2ccccc2)c2ccccc2c1=O)Nc1cccnc1` is -2.67%; for `COC(=O)c1cccc(NC(=O)CC2C(=O)NCCN2C(=O)Nc2cc(C)cc(C)c2)c1` (configuration not stated) it is 19.4%; for `O=C(CCN1C(=O)/C(=C\c2cccs2)SC1=S)NC1=NCCS1` it is 3.82%. Then `C=CCN(CC=C)CCOc1ccccc1`, with -7.24%; and `CCOc1ccc(-c2csc(C3COc4ccccc4O3)n2)cc1` (configuration not stated), with 7.58%. `Cc1ccc(C(=O)N/C(=C\c2ccco2)C(=O)NCCN2CCOCC2)cc1C`: the inhibition was -2.69%.

Regarding `CCN1C[C@]2(COC(=O)c3ccccc3N)CC[C@H](OC)C34[C@@H]5C[C@H]6[C@H](OC)[C@@H]5[C@](O)(C[C@@H]6OC)[C@@](O)([C@H]13)[C@@H](OC)[C@@H]42`, the inhibition was -1.77%. The figure for `O=C(NCc1nnc(SCC(=O)N2CCCC2)o1)c1cccc(C(F)(F)F)c1` is 1.49%; for `O=C(N/N=C/c1ccc(Br)s1)c1c[nH]c2ccccc12` it is -9.2%; for `Fc1ccc(-c2nnc(CSc3nnc(-c4ccc5c(c4)OCO5)o3)o2)cc1` it is -1.77%. As to `CN(CC(=O)NC1CC1)S(=O)(=O)c1ccc(Br)cc1`, the inhibition was 2.4%.

`CSCCC(NS(=O)(=O)c1ccc(C)cc1)C(=O)NCCc1c[nH]c2ccccc12` (configuration not stated): the inhibition amounted to 25.7%. Then `COCCC(=O)N1CCC(Oc2ccc(C(=O)N3CCCCC3CCO)cc2)CC1` (configuration not stated), with 0.25%; and `COc1ccc(C)c2sc(NC(=O)CCS(=O)(=O)c3ccccc3)nc12`, with 1.8%. Then `CC(=O)Nc1ccc(NC(=O)c2c(-c3ccccc3)noc2C)cn1`, with 1%; and `N#C/C(=C/c1ccc(N2CCCCCC2)o1)c1cccc(F)c1`, with 86.4%; and `O=C(CC1C(=O)NCCN1Cc1ccc(F)cc1Cl)NC1CCCCCCC1` (configuration not stated), with -6.59%. Then `Cc1ccc(NC(=S)NC(NC(=O)N(C)C)C(Cl)(Cl)Cl)cc1` (configuration not stated), with -4.76%; and `c1ccc(OCc2nnc(-c3ccccc3)o2)cc1`, with 3.84%. On to `COc1cccc(C(=O)NC2CC(C)(C)Cc3c2cnn3-c2cccc(F)c2)c1OC` (configuration not stated), for which the inhibition stood at 15.4%. As to `CC1CCc2nc(NC(=O)C3COc4ccccc4O3)sc2C1` (configuration not stated), the inhibition amounted to 28.4%. Then `O=C(NC(=S)NC1CCSC1=O)c1ccc([N+](=O)[O-])cc1` (configuration not stated), with -3.14%.

In the case of `COc1ccc(C(=O)NCc2ncccc2C)cc1OC1CCN(C(C)=O)CC1`, the inhibition was -0.79%. Then `CC1(C(=O)OCC(=O)Nc2nc(-c3ccc(F)c(F)c3)cs2)CC1(Cl)Cl` (configuration not stated), with 49.9%; and `CCN(CC)c1ccc(C(=O)n2cnc3ccccc32)cc1`, with 36.1%. Then `N#Cc1ccccc1Cn1c(=O)n(Cc2ccc(C(=O)NCc3ccco3)cc2)c(=O)c2ccccc21`, with 16.8%.

With `CCCn1cc(S(=O)(=O)c2ccc(OC)cc2)c(=O)c2cc(OCC)ccc21`, the inhibition came to 5.94%. With `c1ccc(-n2c3ccccc3c3ccccc32)cc1`, the inhibition was -3.15%.

Turning to `CC(=O)N1c2ccc(S(=O)(=O)N3CCCC3C(=O)Nc3ccc(C)cc3)cc2CC1C` (configuration not stated), the inhibition came to 2.92%. Turning to `CC(C)CCSc1nc(N2CCOCC2)c2c(c1C#N)CC(C)(C)OC2`, the inhibition turned out to be 19.1%. The figure for `CCC(C)(C(=O)Nc1ccc2c(c1)OCCO2)N(C(C)=O)c1ccc(C(N)=O)cc1` (configuration not stated) is 12.2%; for `Cc1[nH]c(-c2ccccn2)nc(=S)c1Cl` it is 19.5%; for `CCOc1ccc(NC(=O)/C(C#N)=C/c2cn(CC(=O)O)c3ccccc23)cc1` it is 2.92%. Consider `COc1ccc(C(=O)NC2CC2)cc1OC1CCN(Cc2ccc(F)cc2F)CC1`, for which the inhibition was -1.32%. Take `CC1(C)Cc2c(sc(NC(=O)C(=O)N3CCCCC3)c2C(=O)O)CO1`: the inhibition turned out to be 6.59%. Then `CCN(CC)C(=O)CSc1nnc2nnc3cc(OC)ccc3n12`, with 33.1%; and `CCOc1cccc(-c2nn3c(-c4ccccn4)nnc3s2)c1`, with -11.7%; and `Clc1ccc(CSc2ccc(-c3cccnc3)nn2)cc1`, with 8.68%. Regarding `O=c1oc2cc(O)ccc2cc1S(=O)(=O)c1ccccc1`, the inhibition was -3.77%. On to `Cc1ccc(-c2nc(N)sc2-c2ccccc2)cc1C`, for which the inhibition was 11.1%. `O=C(NC1CCCCC1)c1cccc(OCc2ccccc2)c1`: the inhibition is -3.37%.

Turning to `CC1=C(C(=O)Nc2ccc(C)cc2)C(c2ccc(N(C)C)cc2)NC(=O)N1` (configuration not stated), the inhibition was 2.17%.

As for `CCCCc1nc(C(N)=O)c2[nH]c(=O)n(-c3ccccc3F)c2n1`, the inhibition came out at 5.14%.

As for `O=C(NCCCN1CCOCC1)c1ccc(N2CCOCC2)c([N+](=O)[O-])c1`, the inhibition was -10.8%. Then `CCc1ccc(S(=O)(=O)N2CCN(Cc3ccco3)CC2)cc1`, with 6.06%. Then `Cc1c(NC(=O)Nc2cccc(C#N)c2)c(=O)n(-c2ccccc2)n1C`, with 8.93%; and `O=C(c1ccc(Oc2ccccc2)cc1)c1nc2c(n1O)CCCC2`, with 54.2%. Then `O=C(/C=C\c1ccc2c(c1)OCO2)NC1(C(=O)Nc2ccc3c(c2)OCCO3)CCCCC1`, with -2.34%; and `CC(C)c1cc(C(=O)N2CCCC(Nc3ccc(F)cc3)C2)n[nH]1` (configuration not stated), with -5.02%. `COc1ccc(C2C(C(=O)O)CC(=O)N2C2CCCCC2)cc1` (configuration not stated): the inhibition is -3.13%. Then `O=C(COCc1cc(-c2ccc3c(c2)OCO3)on1)Nc1cccnc1Cl`, with 85.4%; and `O=C(O)C1C(c2ccccc2)C(C(=O)OCCCO)C1c1ccccc1` (configuration not stated), with -7.19%; and `CCOc1ccccc1N(CC(=O)OC)S(=O)(=O)c1ccccc1`, with 5.45%. The figure for `CSc1cccc(CN2CCC(Oc3cccc(C(=O)N4CCCC4)c3)CC2)c1` is 5.91%. Then `CCCCOC(=O)n1c(=O)oc2cc(S(=O)(=O)N3CCCCC3)ccc21`, with -1.49%.

Values taken from PubChem BioAssay AID434955 (Southern Research Specialized Biocontainment Screening …, 2010).
